For 27 compounds, cytotoxicity call and growth inhibition call results are on record in the antibiotic and cytotoxicity screens of Wong et al. (2023).

In experiment [1] the test system is HSkMC (human skeletal muscle cells). Put plainly: cytotoxicity call (relative viability < 0.9). As to conditions: 10 µM.
Experiment [2] has as its system HepG2. Put plainly: cytotoxicity call (relative viability < 0.9). As to conditions: 10 µM.
The subject of experiment [3] is S. aureus RN4220. Description: growth inhibition call (relative growth <= 0.2). As to conditions: 50 µM.

The other results are listed elsewhere or left out.

With `Cc1noc(C)c1S(=O)(=O)N(C)C[C@@H]1Oc2ccc(NS(=O)(=O)c3ccc(F)cc3)cc2CC(=O)N([C@@H](C)CO)C[C@H]1C`, the cytotoxicity call in experiment [1] and in experiment [2] was “inactive” each time. In experiment [3], the growth inhibition call was “inactive”.

With `CC(C)NC(=O)Nc1cccc2c1O[C@H](CN(C)S(=O)(=O)c1cn(C)cn1)[C@@H](C)CN([C@@H](C)CO)C2=O`, the cytotoxicity call in experiment [1] and in experiment [2] was “inactive” throughout. In addition, the growth inhibition call in experiment [3] was “inactive”.

Turning to `C[C@H](CO)N1C[C@H](C)[C@H](CN(C)Cc2ccc3c(c2)OCCN3C)OCc2cn(nn2)CCCC1=O`, the cytotoxicity call in experiment [1] and in experiment [2] was “inactive” each time. In addition, the growth inhibition call in experiment [3] was “inactive”.

For `C[C@@H]1CN([C@@H](C)CO)C(=O)c2cccc(NC(=O)Nc3ccc4c(c3)OCO4)c2O[C@@H]1CN(C)S(C)(=O)=O`, the cytotoxicity call in experiment [1] and in experiment [2] was “inactive” each time. Further, the growth inhibition call in experiment [3] was “inactive”.

As for `COCC#Cc1ccc2c(c1)O[C@H](CN(C)S(=O)(=O)c1ccc(F)cc1)[C@H](C)CN([C@H](C)CO)S2(=O)=O`, the cytotoxicity call in experiment [1] and in experiment [2] was “inactive” each time. In experiment [3], the growth inhibition call was “inactive”.

For `C[C@H](CO)N1C[C@H](C)[C@H](CN(C)Cc2ccccc2)OCCCC[C@H](C)Oc2ccc(NC(=O)CCC(F)(F)F)cc2C1=O`, the cytotoxicity call in experiment [1] and in experiment [2] was “inactive” throughout. In addition, the growth inhibition call in experiment [3] is “inactive”.

With `O=C(CN1CCOCC1)N[C@@H]1CC[C@@H](CCNC(=O)C2CCCCC2)O[C@H]1CO`, the cytotoxicity call in experiment [1] and in experiment [2] was “inactive” each time. The growth inhibition call in experiment [3] was “inactive”.

With `C[C@@H]1CCCCO[C@@H](CN(C)Cc2ccccc2)[C@H](C)CN([C@@H](C)CO)C(=O)c2cc(NC(=O)C3CCCCC3)ccc2O1`, the cytotoxicity call in experiment [1] and in experiment [2] was “inactive” each time. Also, the growth inhibition call in experiment [3] is “inactive”.

On to `C[C@@H]1CN([C@@H](C)CO)C(=O)c2c(c3ccccc3n2C)-c2ccccc2CO[C@H]1CN(C)Cc1ccc(C(F)(F)F)cc1`, for which the cytotoxicity call in experiment [1] was “active”. Besides, the cytotoxicity call in experiment [2] was “inactive”. For the same compound, the growth inhibition call in experiment [3] is “inactive”.

As for `C[C@@H]1CN([C@H](C)CO)C(=O)c2cc(NC(=O)CCCCCC(=O)Nc3ccccc3N)ccc2O[C@@H]1CN(C)Cc1ccc(Cl)c(Cl)c1`, the cytotoxicity call in experiment [1] and in experiment [2] was “inactive” each time. Also, in experiment [3], the growth inhibition call was “inactive”.

Turning to `O=C(C[C@H]1CC[C@@H](NC(=O)CN2CCOCC2)[C@@H](CO)O1)NCCc1ccncc1`, the cytotoxicity call in experiment [1] and in experiment [2] was “inactive” each time. Besides, the growth inhibition call in experiment [3] was “inactive”.

For `C[C@H]1CN([C@@H](C)CO)S(=O)(=O)c2ccc(C#CCN(C)C)cc2O[C@H]1CN(C)Cc1ccccc1F`, the cytotoxicity call in experiment [1] and in experiment [2] was “inactive” in each case. Besides, the growth inhibition call in experiment [3] was “inactive”.

As for `C[C@@H]1CN([C@H](C)CO)C(=O)c2cc(NS(=O)(=O)c3ccccc3)ccc2O[C@@H](C)CCCCO[C@H]1CN(C)Cc1ccc2c(c1)OCO2`, the cytotoxicity call in experiment [1] and in experiment [2] was “inactive” in each case. For the same compound, in experiment [3], the growth inhibition call is “inactive”.

As for `NCCC(=O)NC(Cc1c[nH]cn1)C(=O)O` (stereo unspecified), the cytotoxicity call in experiment [1] and in experiment [2] was “inactive” each time. In experiment [3], the growth inhibition call was “inactive”.

Consider `O=C(C[C@@H]1C=C[C@H](NC(=O)CN2CCOCC2)[C@H](CO)O1)NCCc1ccccc1`, for which the cytotoxicity call in experiment [1] and in experiment [2] was “inactive” throughout. Besides, the growth inhibition call in experiment [3] is “inactive”.

With `CCCCCCc1nc(-c2cc(C)c(OC)c(C)c2)cc2c1[Si](C(C)C)(C(C)C)O[C@H]2c1ccccc1`, the cytotoxicity call in experiment [1] and in experiment [2] was “inactive” in each case. The growth inhibition call in experiment [3] was “inactive”.

For `CCCc1nc(C)c2c(=O)[nH]c(-c3cc(S(=O)(=O)N4CCN(CC)CC4)ccc3OCC)nn12.Cl`, the cytotoxicity call in experiment [1] and in experiment [2] was “inactive” throughout. Also, the growth inhibition call in experiment [3] is “inactive”.

Take `O=C(C[C@@H]1CC[C@H](NC(=O)C2CC2)[C@H](CO)O1)NCCCN1CCOCC1`: the cytotoxicity call in experiment [1] and in experiment [2] was “inactive” in each case. For the same compound, in experiment [3], the growth inhibition call is “inactive”.

`COc1ccc(C#Cc2ccc3c(c2)[C@]2(C(=O)N3)[C@H](c3ccccc3OCCO)N3[C@H](c4ccccc4)[C@H](c4ccccc4)OC(=O)[C@H]3[C@@H]2C(=O)NC[C@H](O)c2ccccc2)cc1`: the cytotoxicity call in experiment [1] is “inactive”. In experiment [2], the cytotoxicity call was “active”. Besides, the growth inhibition call in experiment [3] was “inactive”.

For the compound `C[C@@H]1CN([C@H](C)CO)C(=O)c2cccc(NC(=O)c3ccncc3)c2O[C@H]1CN(C)S(=O)(=O)c1ccccc1`, the cytotoxicity call in experiment [1] and in experiment [2] was “inactive” in each case. Further, in experiment [3], the growth inhibition call was “inactive”.

Consider `C[C@H](CO)N1C[C@H](C)[C@@H](CN(C)S(=O)(=O)c2ccccc2)Oc2ccc(NC(=O)Cn3cnnn3)cc2CC1=O`, for which the cytotoxicity call in experiment [1] and in experiment [2] was “inactive” each time. Further, in experiment [3], the growth inhibition call is “inactive”.

For the compound `COCCNC(=O)C[C@@H]1CC[C@H]2[C@H](COc3ccc(NS(=O)(=O)c4ccc(Cl)cc4)cc3C(=O)N2C)O1`, the cytotoxicity call in experiment [1] and in experiment [2] was “inactive” each time. The growth inhibition call in experiment [3] was “inactive”.

As to `COC(=O)c1c2oc(c1C(=O)OC)C(=O)N(C)Cc1cn(nn1)C[C@@H](C)NC(=O)N[C@H](CO)CC2`, the cytotoxicity call in experiment [1] and in experiment [2] was “inactive” in each case. For the same compound, the growth inhibition call in experiment [3] was “inactive”.

As to `C[C@@H]1CCCCO[C@@H](CN(C)Cc2ccc(C(=O)O)cc2)[C@@H](C)CN([C@@H](C)CO)C(=O)c2cc(NC(=O)CCC(F)(F)F)ccc2O1`, the cytotoxicity call in experiment [1] and in experiment [2] was “inactive” each time. Moreover, the growth inhibition call in experiment [3] is “inactive”.

As for `O=C(C[C@@H]1CC[C@@H]2[C@H](COC[C@@H](O)CN2S(=O)(=O)c2cccc(Cl)c2)O1)NCCCN1CCOCC1`, the cytotoxicity call in experiment [1] and in experiment [2] was “inactive” throughout. The growth inhibition call in experiment [3] was “inactive”.

As to `C[C@H](CO)N1C[C@H](C)[C@H](CN(C)S(C)(=O)=O)OCCCC[C@H](C)Oc2ccc(NS(=O)(=O)c3cn(C)cn3)cc2C1=O`, the cytotoxicity call in experiment [1] and in experiment [2] was “inactive” in each case. In experiment [3], the growth inhibition call was “inactive”.

For `CC(C)(C)OC(=O)C[C@H]1CC=CC[C@H](CC(=O)NCCO)C(=O)N[C@H](Cc2ccccc2)COC1=O`, the cytotoxicity call in experiment [1] and in experiment [2] was “inactive” throughout. The growth inhibition call in experiment [3] is “inactive”.
